Assay results published in PubChem BioAssay AID504832 (National Center for Advancing Translational Sciences (NCATS), 2011).
Hit rate of the full screen: of about 310,000 compounds, about 18,000 (5.8%) were called active. This list was built around the results that the source calls inconclusive (neither active nor inactive); the mix of calls is not that of the screen. Calls come from the whole dose curve; as a rule, active = well fitted inhibition curve with a large enough effect; inconclusive = small, poorly fitted or top-dose-only effect, or another doubt; inactive = no such curve, though single readings can be large or run the other way. Potencies of inconclusive entries are left out as doubtful fits.

Assay: Primary qHTS for delayed death inhibitors of the malarial parasite plastid, 48 hour incubation
Conditions: P. falciparum luciferase growth in erythrocytes; series mostly up to 28.7 µM
In short: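 First compound was added to culture medium, then infected red cells at 0.1% parasitemia and 2% hematocrit (final). After incubation at 37 C under 5% CO2, luciferase detection reagent was dispensed and light output recorded.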
Potency is the fitted concentration of half-maximal effect; tags give direction and shape of the fitted curve.

Compound	Potency
Cc1cccc(Cc2c(C)nc3c(C(=O)NCc4ccco4)cnn3c2C)c1	inconclusive [inhibitor, single point]
CCc1ccc(Nc2nnc(SC3CCOC3=O)s2)cc1 (configuration not stated)	inactive
CN1CCN(CCC(=O)Nc2ccc(OCc3ccccc3)cc2)CC1	inconclusive [inhibitor, single point]
Cc1ccc(CCNC(=O)CN2C(=O)COc3ccc(S(=O)(=O)N4CCC(C)CC4)cc32)cc1	inconclusive [inhibitor, single point]
NC(=O)CSc1nc(C2CC2)nc2sc3c(c12)CCCC3	inactive
CCN(CC)C(=O)C1c2ccccc2Oc2ccccc21	inactive
COc1ccccc1-c1cn[nH]c1-c1ccc(OCc2ccc([N+](=O)[O-])cc2)cc1O	inconclusive [inhibitor, full curve]
Cc1nc2c(C(=O)NCc3ccco3)cnn2c(C)c1Cc1ccc(F)cc1Cl	inconclusive [inhibitor, single point]
Cc1noc(C)c1COC(=O)c1csc2c1CCC(C)C2 (configuration not stated)	active: 11.7 µM
COc1ccc(CNC(=O)C2CCN(C(=O)[C@@H](CC(C)C)NC(=O)OC(C)(C)C)CC2)cc1	active: 9.28 µM
Cc1ccc(NC(=O)C2(NC(=O)c3ccccn3)CCCCC2)cc1Br	inconclusive [inhibitor, single point]
CCN(CC)c1nc2ccccc2nc1C(C#N)C(=O)NCCCOC (configuration not stated)	inconclusive [inhibitor, single point]
O=C(Oc1ccc(Br)cc1C(=S)N1CCCC1)c1ccccc1F	inactive
O=C(CCCC1=NS(=O)(=O)c2ccccc2N1)N1CCN(c2ccc([N+](=O)[O-])cc2)CC1	active: 8.28 µM
CCn1c(CCCCc2n[nH]c(=S)n2CC)n[nH]c1=S	inactive
Cc1ccc(NC(=O)CN2CCc3cc4c(cc3C2C)OCCCO4)cc1C (configuration not stated)	inconclusive [inhibitor, single point]
CCOc1cc2c(cc1OCC)-n1cccc1C(c1ccccc1O)NC2 (configuration not stated)	active: 8.28 µM
COc1ccc(OC)c(/C=N/n2c(-c3n[nH]c4c3CCC4)n[nH]c2=S)c1	inconclusive [inhibitor, partial curve, poor fit]
COC(=O)[C@@]1(Cc2ccc(F)cc2)[C@H]2c3cc(C(=O)N(C)C)n(Cc4ccc(OC)c(OC)c4)c3C[C@H]2CN1C(=O)c1ccccc1	inconclusive [inhibitor, full curve]
CC(C)(C)NC(=O)NC(=O)CSc1nncs1	inactive
O=C(c1sccc1-c1ccccc1)N1CCN(S(=O)(=O)c2ccccc2F)CC1	inactive
COc1ccc([C@H]2CC(=O)C=C(c3cc(OC)ccc3OC)C2)cc1	inconclusive [inhibitor, single point]
COc1ccc(-c2cc(C(F)(F)F)nc(S(=O)(=O)CCC(=O)N3CCOCC3)n2)cc1	inconclusive [inhibitor, single point]
Cc1cc(N2CCN(C(=O)c3ccco3)CC2)n2ncc(-c3ccccc3)c2n1	inconclusive [inhibitor, single point]

Compound	Potency
Cc1ccc2nnn(Cc3cccc(C(C)(C)C)c3O)c2c1	active: 11.7 µM
CC(C)c1ccc(NC(=O)C(c2ccc3c(c2)OCO3)N2CCC3(CC2)OCCO3)cc1 (configuration not stated)	inconclusive [inhibitor, single point]
Cc1cc2nc(C3CCN(Cc4nnnn4Cc4ccccc4)CC3)[nH]c2cc1C	inconclusive [inhibitor, partial curve]
COc1ccc2[nH]c3c(NCc4ccco4)ncnc3c2c1	inconclusive [inhibitor, single point]
Cc1ccc2c(c1)N(CCC(=O)NCCCN1CCCC1)C(=O)C(C)O2 (configuration not stated)	inactive
Cc1nc(C(=O)NCC(=O)c2ccccc2)c(C(F)(F)F)o1	inconclusive [inhibitor, partial curve, poor fit]
Cc1nc(-c2ccc(S(=O)(=O)N3CCOCC3)cc2)cs1	inactive
CCOc1cccc(-c2nnc3sc(C4CCCCC4)nn23)c1	active: 9.28 µM
Cc1cc(C)c(OCC(=O)N(Cc2cccs2)C2CCS(=O)(=O)C2)c(C)c1 (configuration not stated)	inconclusive [inhibitor, partial curve, poor fit]
C#Cc1ccc([C@@H]2C=C(C(=O)N3CCN(Cc4ccc5c(c4)OCO5)CC3)O[C@H](OCCCCO)C2)cc1	inconclusive [inhibitor, partial curve, poor fit]
CCOC(=O)c1sc(Nc2nc3c(OC)cccc3s2)cc1C	inactive
O=C(CN(Cc1ccccc1)C(=O)c1ccc2c(c1)OCCO2)NCc1ccc2c(c1)OCO2	inconclusive [inhibitor, single point]
CCOc1ccccc1C(=O)Nc1ccc(C(=O)c2ccccc2)cc1	inactive
Cc1ccc(-c2nc3ccccc3s2)cc1NC(=O)c1cc(-n2cnnc2)ccc1Cl	inactive
C=CCn1c(SCC(=O)NCCOC)nc2scc(-c3ccco3)c2c1=O	inconclusive [inhibitor, single point]
O=C(CCc1ccccc1Cl)Nc1cccc(S(=O)(=O)N2CCCC2)c1	inconclusive [inhibitor, single point]
COc1ccc(NC(=O)Cn2nnc3sc4c(c3c2=O)CC(C)(C)OC4)cc1	inactive
Cc1cc(C(=O)COc2ccccc2[N+](=O)[O-])c(C)n1C1CC1	inactive
COC(=O)c1nn(-c2ccccc2)c(Sc2ccc(Cl)cc2)c1/C=N/O	inconclusive [inhibitor, single point]
COc1ccc(CN2CCNC(=O)C2CC(=O)NCc2cnn(C)c2)cc1OC (configuration not stated)	inactive
CCOC(=O)C1CCCN(c2cc(NCCCO)c([N+](=O)[O-])c3nonc23)C1 (configuration not stated)	inconclusive [inhibitor, full curve, poor fit]
O=[N+]([O-])c1ccc(N2CCOCC2)c2cccnc12	inconclusive [inhibitor, single point]
COc1ccc(CC(=O)OCC(=O)N(CC(C)C)c2c(N)n(Cc3ccccc3)c(=O)[nH]c2=O)cc1	inconclusive [inhibitor, single point]
CCOC(=O)C1(Cc2ccccc2C(F)(F)F)CCN(Cc2ccon2)CC1	inconclusive [inhibitor, single point]

Compound	Potency
O=C(c1ccc(-n2cccn2)cc1)N1CCc2c([nH]c3ccccc23)C1c1ccccn1 (configuration not stated)	inconclusive [inhibitor, single point]
CCOC(=O)c1[nH]cnc1C(=O)NC(C)C	inactive
COc1ccccc1CNC(=O)CN(C)S(=O)(=O)c1ccc2c(c1)n(C)c(=O)c(=O)n2C	inconclusive [inhibitor, partial curve]
COC(=O)c1sccc1NC(=O)Nc1ccc(C)c(C)c1	inactive
CSc1ccc(CN(C)C(=O)CNC(=O)c2ccc3c(c2)OCO3)cc1	active: 4.15 µM
CC(C)NC(=O)CC(=O)N/N=C/c1cccs1	inconclusive [inhibitor, partial curve]
CCc1cc2c(SCC(=O)Nc3ccc(NC(C)=O)cc3)ncnc2s1	inconclusive [inhibitor, partial curve]
Cc1cc(C)c(OCCNCc2ccccc2)c(C)c1	inactive
O=C(c1cc(F)ccc1F)C1CCCN(Cc2cc(Cl)ccc2O)C1 (configuration not stated)	active: 4.15 µM
COc1ccc(CCNC(=O)c2c(C)nc3ccccn23)cc1	inconclusive [inhibitor, single point]
COc1ccc(C(CNC(=O)c2ccc(NS(=O)(=O)c3ccc(F)c(C)c3)cc2)N2CCOCC2)cc1 (configuration not stated)	active: 10.4 µM
N#Cc1ccc(S(=O)(=O)N2CCN(CC(=O)NCC3(N4CCOCC4)CCCCC3)CC2)cc1	inconclusive [inhibitor, single point]
Cc1ccccc1OCC(=O)Nc1sc2c(c1C#N)CCC2	inactive
CCOc1ccccc1CNC(=O)c1nn(C)c2c1CS(=O)(=O)c1ccccc1-2	inconclusive [inhibitor, single point]
COc1ccc(CCCC(=O)O)c(C)c1	inconclusive [inhibitor, single point]
Cc1ccc2nc(CSc3nnc4ccccn34)cc(=O)n2c1	inactive
Cc1ccc(NC(=O)c2sc3nc(CCl)[nH]c(=O)c3c2C)c(C)c1	inconclusive [inhibitor, partial curve, poor fit]
O=c1oc2cc(OCc3ccc(F)cc3F)ccc2cc1-c1ccc2ccccc2n1	inactive
Cc1cc(C)nc(NS(=O)(=O)c2ccc(NC(=O)CSc3ncn[nH]3)cc2)n1	inactive
CC(C)c1ccc(NC(=O)c2cc(S(=O)(=O)N3CCCC3)c[nH]2)cc1	inconclusive [inhibitor, partial curve]
CCCS(=O)(=O)NCCc1cc2ccc(C)cc2[nH]c1=O	inactive
COc1ccc(NC2CCCN(C(=O)c3cccnc3SC)C2)cc1OC (configuration not stated)	inconclusive [inhibitor, single point]
Cn1c(C(=O)N2CCC(C(=O)N3CCN(Cc4ccc5c(c4)OCO5)CC3)CC2)cc2sccc21	inconclusive [inhibitor, partial curve, poor fit]
CCCCn1c(N)c(N(CCOC)C(=O)c2cccc(S(=O)(=O)N(C)c3ccccc3)c2)c(=O)[nH]c1=O	inconclusive [inhibitor, single point]
